The BET-seq Pho4 binding data (Le et al. 2018)
Some of the results follow. Values were computed here from the reads of four pooled replicates and scatter widely.

Target: T1, Pho4 (S. cerevisiae) (UniProt P07270)
T1 sequence: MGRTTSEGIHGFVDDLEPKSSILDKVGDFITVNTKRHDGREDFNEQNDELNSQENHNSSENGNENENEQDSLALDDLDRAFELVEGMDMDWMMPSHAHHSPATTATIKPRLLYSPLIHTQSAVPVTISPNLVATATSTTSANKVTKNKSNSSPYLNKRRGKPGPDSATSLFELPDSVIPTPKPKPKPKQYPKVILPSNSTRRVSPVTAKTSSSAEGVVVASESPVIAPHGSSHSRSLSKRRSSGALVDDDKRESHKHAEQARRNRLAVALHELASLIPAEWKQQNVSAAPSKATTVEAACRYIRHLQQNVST
Assay: relative binding free energy (BET-seq); higher = weaker binding
Details: reference: library average

Sequence | relative binding free energy [kcal/mol]
GCGTACACGTGTTTTT | 0.14
GTGATCACGTGTGCTG | 0.01
GTTGGCACGTGTATTA | -0.03
AGTGACACGTGGAAGG | 0
TTGGACACGTGATGCG | 0.12
GAGCGCACGTGAGGTG | 0.19
TAAGCCACGTGGGGTA | -0.4
TTAAGCACGTGAGGAG | 0.09
TATCTCACGTGGCGTA | 0.29
ATGGCCACGTGAGTGG | 0.13
AGTGTCACGTGGAGTG | 0.09
TGTTACACGTGTTTTA | 0.15
CGTAGCACGTGCTTGG | 0
GTGGGCACGTGTAGTG | -0.03
GGGGGCACGTGGCCGA | -0.34
TAAGCCACGTGGTTGG | -0.12
GGTTACACGTGTTGGT | 0.29
AGGTACACGTGGTGGA | 0
CTTAACACGTGTTTGT | 0.02
GGGAGCACGTGTGTGC | -0.01
TGGGGCACGTGACAAG | -0.14
AATGTCACGTGGGGGT | -0.1
TCTTTCACGTGTTTTG | 0.21

Sequence | relative binding free energy [kcal/mol]
AAGGTCACGTGTTGTC | 0.12
TTGGTCACGTGACTGT | 0.22
CAGTTCACGTGGGTGA | 0.1
CGTAGCACGTGTGGGT | 0.01
TTGGGCACGTGAAGTG | 0.23
TTGTTCACGTGTTCAT | 0.31
TAGTTCACGTGATTAG | 0.27
TATTTCACGTGTCATT | 0.15
TTTCGCACGTGGTGAG | 0.1
GTGTCCACGTGGGCGG | -0.04
TGGAACACGTGGTTTG | 0.05
TAGATCACGTGGTCGG | 0.14
CATAGCACGTGGTGGA | -0.14
TTGTACACGTGTTGGT | 0
AATATCACGTGTTGGC | 0.09
TTAAGCACGTGGGGTC | -0.22
GGATGCACGTGGCCGT | -0.04
TGTTGCACGTGGGTGA | -0.05
TGGATCACGTGAAAAT | 0.49
ATGCGCACGTGAAGGG | 0.13
TAGGACACGTGATGTA | -0.04
GTTAGCACGTGTAAGT | 0.04
GAGGTCACGTGAGGTC | 0.43

Sequence | relative binding free energy [kcal/mol]
CTGTACACGTGGGTGT | -0.13
GGTAACACGTGATTGT | 0.21
TATGTCACGTGGAGTA | 0.05
CTGGGCACGTGGTTGA | -0.23
CTGAGCACGTGTGCGT | 0.04
CTTTGCACGTGGTGGC | -0.01
AGATGCACGTGTAGGG | 0.01
ATTGACACGTGTGTAT | -0.09
CATAGCACGTGGGCGG | -0.22
GTTATCACGTGTCGCT | 0.3
TGTTGCACGTGCAAAT | -0.01
TTCTGCACGTGTGGAA | 0.18
TAGGGCACGTGGGTGC | -0.27
GTTTGCACGTGGATTG | 0.11
TAGGTCACGTGAGGTG | 0.25
TTAGTCACGTGTATAT | 0.12
GGGAGCACGTGGCGTT | -0.28
AGTAGCACGTGGGATT | -0.16
TTCGGCACGTGTTTAA | -0.02
ATTGTCACGTGAGATT | 0.26
CGTTTCACGTGCGGAG | 0.2
GTCTCCACGTGGGGTT | -0.04
TGTCTCACGTGTGTGG | 0.19

Sequence | relative binding free energy [kcal/mol]
GGGCGCACGTGGTTGC | -0.08
AAGAGCACGTGGAATG | 0.12
TCTGTCACGTGTTGAA | 0.15
GTGAACACGTGTATAT | 0.09
TGCTGCACGTGGTTTG | 0.01
TTCAGCACGTGTGATT | 0.04
GATTGCACGTGCTGGG | 0.01
ATAGCCACGTGAGGTG | 0.18
ACGGGCACGTGACTGG | 0.13
TTTATCACGTGTGAAT | 0.14
TTGTACACGTGGAGAA | 0.08
AGTTGCACGTGGGCGC | -0.21
TTCTTCACGTGTCTGT | 0.27
GTCTTCACGTGCAGTT | 0.41
TAATGCACGTGCGGCG | -0.07
TTTTACACGTGGGGTC | 0
GTTGCCACGTGTTAGT | 0.02
TTCTACACGTGGCGGG | 0.15
GGTAACACGTGAGGGA | 0.35
GGTTTCACGTGCAAGT | 0.35
GGCATCACGTGTATGT | 0.22
AGGGCCACGTGAGGGC | 0.16
GTAAGCACGTGAGAGT | 0.05

Sequence | relative binding free energy [kcal/mol]
TGGAACACGTGGCGGC | -0.02
TGTTGCACGTGGCGAG | -0.07
TCCAACACGTGTGGGT | 0.23
AGGGGCACGTGTTTGA | -0.16
TCGTGCACGTGAATGT | 0.27
CGCGGCACGTGTGGTG | -0.11
TCGTGCACGTGTGTTT | -0.07
GGTTTCACGTGATCGT | 0.25
ATGTTCACGTGGGAAG | 0.17
AGTGGCACGTGACATG | 0.03
TTTTTCACGTGGCGTA | 0.16
TGAGGCACGTGTTAAC | 0.06
AGCATCACGTGTGAGG | 0.15
TGTACCACGTGGTAGT | -0.09
GGAAGCACGTGGGATA | -0.15
GTTAACACGTGATAAT | 0.25
TGGTACACGTGTCGGG | 0.18
TAGGGCACGTGCTGAT | -0.13
GAGGGCACGTGGTCTA | -0.23
CATTGCACGTGGTATG | -0.08
TAGGGCACGTGTTATT | -0.11
TTGTTCACGTGTTGCG | 0.21
ATGGTCACGTGGTCGA | -0.02
